From the supplement of paper PMC9446081
About 220 (0.56%) of roughly 39,000 compounds showed activity. Some of the results follow.
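Further: static incubation at 37 °C against the wild-type strain, values averaged over two biological replicates.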

Each molecule was assayed on Escherichia coli K-12 BW25113 (assay: relative growth (OD600 normalised to plate interquartile mean) (fraction); higher = less growth inhibition, active = 0.2 or less). Settings: 50 µM; LB; incubation time: overnight (16-24 h).
In the case of `C[C@@H]1CN([C@H](C)CO)C(=O)Cc2cc(NS(=O)(=O)c3cn(C)cn3)ccc2O[C@@H]1CN(C)S(=O)(=O)c1ccccc1`, the relative growth is reported as inactive: 0.993.
With `CCOC(=O)c1nnn(CC(N)=O)c1C` the relative growth was inactive: 1.04.
With `COc1ccc(NC(=O)Nc2ccc3c(c2)CC(=O)N([C@@H](C)CO)C[C@@H](C)[C@H](CN(C)Cc2ccc(C(F)(F)F)cc2)O3)cc1` the relative growth was inactive: 1.05.
In the case of `COc1c(O)cc2c(c1O)C1OC(CO)C(O)C(O)C1OC2=O` (stereo unspecified), the relative growth is reported as inactive: 1.04.
In the case of `N#CCON1C(=O)c2ccccc2C1=O`, the relative growth is reported as inactive: 0.987.
`C[N+]1(CCCCC[N+]2(C)CCCC2)CCCC1.O=C([O-])C(O)C(O)C(=O)O.O=C([O-])C(O)C(O)C(=O)O` was tested, and the relative growth was inactive: 0.992.
For `C[C@@H]1CN([C@@H](C)CO)C(=O)c2cc(NC(=O)C3CC3)ccc2O[C@@H]1CN(C)Cc1ccc(-c2ccccc2)cc1`, the relative growth was inactive: 0.921.
In the case of `C[C@H](CO)N1C[C@H](C)[C@H](CN(C)S(=O)(=O)c2ccc(F)cc2)Oc2ccc(NC(=O)C3CC3)cc2CC1=O`, the relative growth is reported as inactive: 0.99.
With `C[C@H]1CN([C@@H](C)CO)C(=O)c2cccc(NC(=O)Nc3cccc4ccccc34)c2O[C@@H]1CN(C)S(=O)(=O)c1cccs1` the relative growth was inactive: 0.753.
With `C[C@H](CO)N1C[C@H](C)[C@H](CN(C)C(=O)Nc2ccc3c(c2)OCO3)Oc2c(NC(=O)C3CCOCC3)cccc2C1=O` the relative growth was inactive: 0.985.
With `O[C@@H]1[C@@H](O)[C@H](OC/C=C/c2ccccc2)O[C@H](CO[C@@H]2OC[C@@H](O)[C@@H](O)[C@@H]2O)[C@H]1O` the relative growth was inactive: 1.01.
For `C[C@@H]1CCCCO[C@@H](CN(C)S(=O)(=O)c2ccccc2)[C@H](C)CN([C@@H](C)CO)C(=O)c2cc(NC(=O)Nc3ccccc3)ccc2O1`, the relative growth was inactive: 1.07.
For `Cc1ccccc1Nc1nnc(C)c(=O)n1N`, the relative growth was inactive: 0.947.
In the case of `C[C@@H]1CCCCO[C@H](CN(C)C(=O)Nc2ccc(F)cc2)[C@H](C)CN([C@@H](C)CO)C(=O)c2cc(NC(=O)c3ccccc3)ccc2O1`, the relative growth is reported as inactive: 1.01.
For `CC12CC3CC(C)(C1)CC(N)(C3)C2.Cl`, the relative growth was inactive: 0.999.
`C[C@@H]1CN([C@@H](C)CO)C(=O)c2cc(-c3ccncc3)cnc2O[C@H]1CN(C)S(=O)(=O)c1ccc(F)cc1` was tested, and the relative growth was inactive: 1.03.
For `C/C=C/c1ccc2c(c1)O[C@H](CN(C)Cc1ccc(C(=O)O)cc1)[C@@H](C)CN([C@H](C)CO)S2(=O)=O`, the relative growth was inactive: 0.976.
In the case of `CC1(C)CC(=O)c2c(C(F)(F)F)nn(-c3ccc(C(N)=O)c(N[C@H]4CC[C@H](OC(=O)CN)CC4)c3)c2C1`, the relative growth is reported as inactive: 0.985.
For `Cc1cc([C@@H](O)CCCN)ccc1F`, the relative growth was inactive: 1.
In the case of `C[C@H](CO)N1C[C@H](C)[C@@H](CN(C)Cc2ccc(C(F)(F)F)cc2)Oc2c(NC(=O)Nc3ccc(F)cc3)cccc2C1=O`, the relative growth is reported as inactive: 0.869.
For `C[C@@H]1CCCCO[C@H](CN(C)C(=O)c2ccccc2)[C@H](C)CN([C@@H](C)CO)C(=O)c2cc(NS(=O)(=O)c3cccs3)ccc2O1`, the relative growth was inactive: 0.946.
For `COc1ccc2c3c(n(c2c1)C)[C@@H](CO)N(CC1CC1)C[C@]13CCN(CC1)S(=O)(=O)c1cn(cn1)C`, the relative growth was inactive: 0.994.
In the case of `CCS(=O)(=O)N1CC[C@H]2[C@H](CC1)S(=O)(=O)CCN2C(=O)c1ccccc1`, the relative growth is reported as inactive: 1.
`COc1cc([C@@H](O)[C@@H](CO[C@@H]2O[C@H](CO)[C@@H](O)[C@H](O)[C@H]2O)Oc2ccc(/C=C/CO)cc2OC)ccc1O` was tested, and the relative growth was inactive: 0.99.
With `COc1ccc(S(=O)(=O)N(C)C[C@H]2Oc3cc(C#CC4CC4)ccc3S(=O)(=O)N([C@@H](C)CO)C[C@@H]2C)cc1` the relative growth was inactive: 1.04.
For `Cl.NC1=NCC2c3ccccc3Cc3ccccc3N12` (stereo unspecified), the relative growth was inactive: 1.14.
`C[C@H](CO)N1C[C@H](C)[C@H](CN(C)Cc2ccc(F)cc2)Oc2ncc(C#Cc3cccnc3)cc2C1=O` was tested, and the relative growth was inactive: 0.989.
With `O=C(CN1C(=O)COCC1=O)N1CCOCC1` the relative growth was inactive: 1.
`C[C@H]1CN([C@@H](C)CO)C(=O)c2cc(-c3ccc(C(=O)N(C)C)cc3)cnc2O[C@H]1CN(C)C(=O)C1CC1` was tested, and the relative growth was inactive: 0.973.
For `CCCC#Cc1ccc2c(c1)O[C@H](CN(C)S(=O)(=O)c1cccc(F)c1)[C@@H](C)CN([C@@H](C)CO)S2(=O)=O`, the relative growth was inactive: 1.
`COc1ccc([Si](C)(C)[C@H]2[C@H](CC(=O)N3CCC[C@H]3CO)O[C@@]3(C(=O)N(Cc4ccc(N5CCCCC5=O)cc4)c4ccccc43)[C@@H]2C)cc1` was tested, and the relative growth was inactive: 1.01.
`O=C(C[C@H]1C=C[C@@H](NC(=O)Nc2ccc3c(c2)OCO3)[C@@H](CO)O1)NCCCN1CCOCC1` was tested, and the relative growth was inactive: 0.992.
`C[C@@H]1CCCCO[C@H](CN(C)S(=O)(=O)c2cccs2)[C@H](C)CN([C@@H](C)CO)C(=O)c2cc(NC(=O)CCC(F)(F)F)ccc2O1` was tested, and the relative growth was inactive: 0.924.
With `CS(=O)(=O)N1C[C@H](O)COC[C@@H]2O[C@@H](CC(=O)NCCc3ccncc3)CC[C@H]21` the relative growth was inactive: 0.96.
`O=C(O)c1csc2c1CCCCC2` was tested, and the relative growth was inactive: 1.01.
`COc1ccccc1-c1cccc(-c2nc(C(=O)N3CCCCC3)cc3c2[C@@H](CCO)N([S@@](=O)C(C)(C)C)C3)c1` was tested, and the relative growth was inactive: 1.02.
For `COc1ccc(NC(=O)Nc2ccc3c(c2)C(=O)N([C@@H](C)CO)C[C@H](C)[C@@H](CN(C)S(C)(=O)=O)O3)cc1`, the relative growth was inactive: 1.03.
For `CCCC#Cc1cnc2c(c1)C(=O)N([C@H](C)CO)C[C@@H](C)[C@H](CN(C)S(=O)(=O)c1cccc(OC)c1)O2`, the relative growth was inactive: 1.01.
With `C[C@@H]1CCCCO[C@@H](CN(C)C(=O)Nc2ccc(C(F)(F)F)cc2)[C@@H](C)CN([C@H](C)CO)C(=O)c2cc(NS(=O)(=O)c3ccc(Cl)cc3)ccc2O1` the relative growth was inactive: 0.987.
In the case of `CS(=O)(=O)N1CCn2cc(Cn3cncn3)nc2C1`, the relative growth is reported as inactive: 0.985.
For `COc1ccc2c(O[C@H]3CCCC[C@@H]3OC)nccc2c1-n1ccnc1-c1c[nH]c2c(N)c(F)cc(C#N)c12`, the relative growth was inactive: 0.997.
